# Reference: paper PMC6430795, “Complex formation of APP with GABAB receptors links axonal trafficking to amyloidogenic processing” (Nature Communications, 2019)
# Chains of the proteins cited; added tags and fusions are not shown. Lines headed by an entry give the natural chain unless they say otherwise; changes in a name come on top. Residues count along the entry.
# UniProt Q9Z0U4, residues 20-960: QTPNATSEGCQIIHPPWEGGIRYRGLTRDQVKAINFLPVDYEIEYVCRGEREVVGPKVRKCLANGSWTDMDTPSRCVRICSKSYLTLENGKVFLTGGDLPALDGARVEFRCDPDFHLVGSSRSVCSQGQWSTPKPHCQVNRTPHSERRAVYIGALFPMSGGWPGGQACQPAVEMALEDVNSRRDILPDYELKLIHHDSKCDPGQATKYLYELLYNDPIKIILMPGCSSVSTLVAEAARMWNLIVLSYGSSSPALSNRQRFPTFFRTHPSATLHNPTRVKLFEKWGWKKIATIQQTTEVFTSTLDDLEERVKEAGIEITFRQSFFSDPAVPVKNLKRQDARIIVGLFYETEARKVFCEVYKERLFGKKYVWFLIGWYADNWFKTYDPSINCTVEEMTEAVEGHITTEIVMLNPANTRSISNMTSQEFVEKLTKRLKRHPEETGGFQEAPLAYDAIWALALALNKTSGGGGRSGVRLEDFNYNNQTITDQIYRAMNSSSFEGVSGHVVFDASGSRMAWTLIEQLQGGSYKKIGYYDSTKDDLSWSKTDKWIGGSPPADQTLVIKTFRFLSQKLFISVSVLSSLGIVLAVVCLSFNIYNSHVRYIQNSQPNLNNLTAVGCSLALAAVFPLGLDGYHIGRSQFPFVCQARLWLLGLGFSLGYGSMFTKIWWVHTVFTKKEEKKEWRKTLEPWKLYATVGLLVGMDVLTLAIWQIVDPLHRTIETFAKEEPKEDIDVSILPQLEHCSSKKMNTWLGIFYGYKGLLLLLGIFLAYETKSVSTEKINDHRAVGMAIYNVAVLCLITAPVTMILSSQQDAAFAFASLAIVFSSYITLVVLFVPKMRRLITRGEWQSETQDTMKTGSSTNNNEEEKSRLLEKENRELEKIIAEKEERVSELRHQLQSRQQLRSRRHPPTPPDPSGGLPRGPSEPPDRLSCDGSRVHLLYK
# UniProt Q9WV18: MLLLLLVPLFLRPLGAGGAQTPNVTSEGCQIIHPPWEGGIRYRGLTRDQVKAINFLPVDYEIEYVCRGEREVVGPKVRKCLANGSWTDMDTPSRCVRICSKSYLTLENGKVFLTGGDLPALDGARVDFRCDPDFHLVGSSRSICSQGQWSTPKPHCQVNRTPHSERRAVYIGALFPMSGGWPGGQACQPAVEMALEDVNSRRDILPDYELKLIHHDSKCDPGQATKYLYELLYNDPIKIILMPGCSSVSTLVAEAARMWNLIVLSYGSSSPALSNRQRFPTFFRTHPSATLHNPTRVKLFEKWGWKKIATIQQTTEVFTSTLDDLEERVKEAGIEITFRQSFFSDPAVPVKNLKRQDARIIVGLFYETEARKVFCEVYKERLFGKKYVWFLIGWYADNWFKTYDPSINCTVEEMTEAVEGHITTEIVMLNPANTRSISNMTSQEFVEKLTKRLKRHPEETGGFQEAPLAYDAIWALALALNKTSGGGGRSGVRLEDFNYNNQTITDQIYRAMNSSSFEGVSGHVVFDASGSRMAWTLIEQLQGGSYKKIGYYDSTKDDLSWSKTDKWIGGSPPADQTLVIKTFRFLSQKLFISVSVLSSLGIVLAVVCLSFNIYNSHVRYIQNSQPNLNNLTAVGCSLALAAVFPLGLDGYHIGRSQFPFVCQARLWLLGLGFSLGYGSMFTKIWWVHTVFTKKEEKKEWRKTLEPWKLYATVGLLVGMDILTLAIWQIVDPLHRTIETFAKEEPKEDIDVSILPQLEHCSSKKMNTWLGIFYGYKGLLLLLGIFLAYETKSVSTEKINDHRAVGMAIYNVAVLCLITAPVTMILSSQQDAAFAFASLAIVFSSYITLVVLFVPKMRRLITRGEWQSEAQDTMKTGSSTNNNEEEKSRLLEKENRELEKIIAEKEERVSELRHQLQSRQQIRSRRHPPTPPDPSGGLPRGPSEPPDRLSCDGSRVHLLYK
# Results are given in words; binding and its absence hold for the method and conditions named. Binding seen in cells or lysates may run through a third protein. Some entries that bind do so weakly or less than the wild type.
# T1: PILRα-associated neural protein (PIANP), native (mouse (endogenous in brain)) (UniProt Q6P1B3)
# T1 sequence: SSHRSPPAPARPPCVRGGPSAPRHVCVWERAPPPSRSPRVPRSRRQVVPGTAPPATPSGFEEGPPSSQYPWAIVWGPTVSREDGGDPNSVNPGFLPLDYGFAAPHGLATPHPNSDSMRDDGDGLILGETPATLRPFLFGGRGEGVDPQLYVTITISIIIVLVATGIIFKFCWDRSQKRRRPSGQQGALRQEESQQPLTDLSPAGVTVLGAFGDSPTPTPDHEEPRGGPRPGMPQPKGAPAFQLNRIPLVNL
# T2: adherence-junction associated protein 1 (AJAP-1), native (mouse (endogenous in brain)) (UniProt A2ALI5)
# T2 sequence: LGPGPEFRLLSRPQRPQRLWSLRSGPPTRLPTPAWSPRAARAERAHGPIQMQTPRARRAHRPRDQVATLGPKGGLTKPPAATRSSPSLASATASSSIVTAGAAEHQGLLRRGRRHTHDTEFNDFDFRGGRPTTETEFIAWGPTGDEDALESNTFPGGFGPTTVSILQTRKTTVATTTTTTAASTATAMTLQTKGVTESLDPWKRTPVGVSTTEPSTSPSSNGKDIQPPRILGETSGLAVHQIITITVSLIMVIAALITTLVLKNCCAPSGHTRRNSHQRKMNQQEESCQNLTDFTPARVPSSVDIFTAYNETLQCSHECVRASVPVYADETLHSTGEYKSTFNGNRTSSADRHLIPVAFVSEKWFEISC
# Legend:
# Myc-GB1a = Myc-GB1a (UniProt Q9Z0U4); experiment: co-IP; transfected HEK293 cells lysed in NETN buffer 24 h after transfection; antibodies (anti-Myc, anti-Flag and others) on Protein-G/A agarose; immunoblot
# [1] = target: T1, PILRα-associated neural protein (PIANP), native (mouse (endogenous in brain)); experiment: co-IP; mouse brain membrane fragments in NET buffer, untreated or treated with 1 mM GABA or 4 µM CGP54626 for 1 h, 0.5% Nonidet P-40; IP with anti-APP (Y188), anti-AJAP-1 or anti-PIANP for 16 h at 4 °C; GB1a read on immunoblots
# [2] = target: T2, adherence-junction associated protein 1 (AJAP-1), native (mouse (endogenous in brain)); experiment: as above
Molecule,binding (Myc-GB1a),binding [1],binding [2]
"native GABAB receptors (GBRs), GB1a/2 (from UniProt Q9WV18 20-960; Q80T41 41-940) (complex)",,binds,binds
"AJAP-1 (in pcDNA3) (protein, UniProt A2ALI5 44-412) LGPGPEFRLLSRPQRPQRLWSLRSGPPTRLPTPAWSPRAARAERAHGPIQMQTPRARRAHRPRDQVATLGPKGGLTKPPAATRSSPSLASATASSSIVTAGAAEHQGLLRRGRRHTHDTEFNDFDFRGGRPTTETEFIAWGPTGDEDALESNTFPGGFGPTTVSILQTRKTTVATTTTTTAASTATAMTLQTKGVTESLDPWKRTPVGVSTTEPSTSPSSNGKDIQPPRILGETSGLAVHQIITITVSLIMVIAALITTLVLKNCCAPSGHTRRNSHQRKMNQQEESCQNLTDFTPARVPSSVDIFTAYNETLQCSHECVRASVPVYADETLHSTGEYKSTFNGNRTSSADRHLIPVAFVSEKWFEISC",binds,,

# Next, values leading:
binding (Myc-GB1a),binding [1],binding [2],Molecule
no binding,,,APP with residues 202–219 deleted (from UniProt P05067-4 18-695)
no binding,,,"AJAP-1 with residues 181–186 replaced with alanine (protein, UniProt A2ALI5 44-412) LGPGPEFRLLSRPQRPQRLWSLRSGPPTRLPTPAWSPRAARAERAHGPIQMQTPRARRAHRPRDQVATLGPKGGLTKPPAATRSSPSLASATASSSIVTAGAAEHQGLLRRGRRHTHDTEFNDFDFRGGRPTTETEFAAAAAAGDEDALESNTFPGGFGPTTVSILQTRKTTVATTTTTTAASTATAMTLQTKGVTESLDPWKRTPVGVSTTEPSTSPSSNGKDIQPPRILGETSGLAVHQIITITVSLIMVIAALITTLVLKNCCAPSGHTRRNSHQRKMNQQEESCQNLTDFTPARVPSSVDIFTAYNETLQCSHECVRASVPVYADETLHSTGEYKSTFNGNRTSSADRHLIPVAFVSEKWFEISC"
